Test results published in PubChem BioAssay AID588342 (National Center for Advancing Translational Sciences (NCATS), 2011).
The campaign covered roughly 360,000 compounds. About 25,000 (6.9%) were called active. Inconclusive results, whose numbers are uncertain, are shown with a selection of clear calls. The call rests on the fitted dose curve; in most records, active means well fitted inhibition curve with a large enough effect; inconclusive means small, poorly fitted or top-dose-only effect; inactive means flat fitted curve, though single readings scatter. Where the call is inconclusive, the potency comes from a doubtful curve fit.

These compounds were tested against Luciferin 4-monooxygenase (Photinus pyralis) (UniProt P08659) (assay: qHTS profiling assay for firefly luciferase inhibitor/activator using purifed enzyme and Km concentrations of substrates (counterscreen for miR-21 project)). Conditions: purified FLuc, luminescence inhibition; activity change, negative = inhibition: at 57.5 µM (top of the series).
Sequence of UniProt P08659 (P08659 whole entry, looked up): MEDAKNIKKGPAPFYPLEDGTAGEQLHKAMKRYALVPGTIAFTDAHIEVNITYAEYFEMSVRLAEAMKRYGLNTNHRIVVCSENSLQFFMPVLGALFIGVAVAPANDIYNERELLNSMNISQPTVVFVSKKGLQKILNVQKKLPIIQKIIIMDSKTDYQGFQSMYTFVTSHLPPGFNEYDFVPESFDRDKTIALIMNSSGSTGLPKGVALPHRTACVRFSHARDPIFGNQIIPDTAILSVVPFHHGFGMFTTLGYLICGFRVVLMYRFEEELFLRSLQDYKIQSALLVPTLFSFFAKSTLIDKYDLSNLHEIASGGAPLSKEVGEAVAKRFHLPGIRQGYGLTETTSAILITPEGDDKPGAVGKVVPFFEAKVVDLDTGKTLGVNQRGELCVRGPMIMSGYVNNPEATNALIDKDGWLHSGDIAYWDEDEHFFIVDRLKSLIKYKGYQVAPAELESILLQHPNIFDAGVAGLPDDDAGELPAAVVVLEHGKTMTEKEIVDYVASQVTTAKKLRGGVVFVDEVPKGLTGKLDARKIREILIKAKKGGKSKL
Outline: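 Biochemical qHTS of compounds, final roughly 60 µM downward over six points, against 10 nM purified firefly luciferase using Km concentrations of substrates (10 uM D-luciferin, 10 uM ATP) in Tris acetate pH 7.5 buffer; luminescence output.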
Further: nearly all actives have a fitted effect of over 55% in size.
Potency means the concentration at half of the fitted maximal effect; tags describe the fitted curve by direction and shape.
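Wherever activity change, negative = inhibition is given: plate controls were vehicle for no effect and reference inhibitor for full effect.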

| Compound | Potency | activity change, negative = inhibition |
| --- | --- | --- |
| COc1ccc2nc(SC)cc(C)c2c1 | inconclusive: 26.9 µM [inhibitor, partial curve, poor fit] | – |
| O=C(CSc1nc(-c2ccccc2)cc(C(F)(F)F)n1)NCc1ccco1 | – | inactive: -0.669% |
| Cc1ccc2c(cnn2C(=O)CCC(=O)N2CCCCC2)c1 | active: 12 µM | – |
| Cc1cccc(N2CCN(C(=O)Cn3cnc4c3c(=O)n(C)c(=O)n4C)CC2)c1C | – | inactive: -2.03% |
| S=C(Nc1cccc(Br)c1)c1ccccc1 | inconclusive: 37.9 µM [inhibitor, partial curve, poor fit] | – |
| Nc1ccc(Br)cc1-c1nc2ccccc2[nH]c1=O | – | inactive: -2.33% |
| Cc1cc(N2CCCCCC2)nc2ccccc12 | inconclusive: 26.9 µM [inhibitor, partial curve, poor fit] | – |
| O=C1ON=C(c2ccccc2)/C1=C\c1ccco1 | inconclusive: 16.9 µM [inhibitor, partial curve] | – |
| CSc1ccccc1NC(=O)c1cc(-c2cccs2)on1 | inconclusive: 26.9 µM [inhibitor, partial curve, poor fit] | – |
| Cc1csc(NC(=O)c2ccc3nc[nH]c3c2)n1 | active: 4.26 µM | – |
| COCCCN=C1NN=C(c2cc(C)n(-c3ccccc3)c2C)CS1 | active: 4.26 µM | – |
| O=C1CCN(Cc2ccccc2)CCN1[C@H](CSc1ccccc1)c1ccccc1 | inconclusive: 26.9 µM [inhibitor, single point] | – |
| CC1(C)Oc2ccc(C(=O)Nc3ccccc3F)cc2N(CC(=O)N2CCOCC2)C1=O | – | inactive: 2.08% |
| O=C1/C(=C/c2ccc(O)cc2)COc2ccccc21 | active: 0.757 µM | – |
| COc1cccc(NC(=O)Cn2nnc(C(=O)Nc3ccccc3)c2N)c1 | inconclusive: 37.9 µM [inhibitor, partial curve, poor fit] | – |
| COc1ccc(C(=O)COc2ccc(F)cc2)c(O)c1 | active: 13.5 µM | – |
| CCOc1ccc(CCNC(=O)c2cccc(-n3c(C)nc4cccnc43)c2C)cc1 | – | inactive: -0.697% |
| Cc1ccnc(NC(=O)CCC(=O)N(CC(=O)NC(C)(C)C)c2ccc3c(c2)OCCO3)c1 | – | inactive: -13.4% |
| COc1ccc(CN2C(=O)c3cccnc3C2=O)cc1S(=O)(=O)N1CCCCC1 | – | inactive: -0.144% |
| O=C(N/N=C/c1ccc(-c2ccc(Cl)c(C(=O)O)c2)o1)c1cc2c(ccc3ccccc32)o1 | active: 21.3 µM | – |
| O=C(NNC(=O)c1ccc(Cl)s1)c1csc(N2CCOCC2)n1 | inconclusive: 30.1 µM [inhibitor, partial curve, poor fit] | – |
| COc1ccccc1CNC(=O)COC(=O)c1c(C)nn(-c2ccccc2)c1Cl | – | inactive: 0.0351% |
| CN(C)C(=O)c1cc(C(=O)c2ccccc2Cl)c[nH]1 | inconclusive: 37.9 µM [inhibitor, partial curve, poor fit] | – |
| Cc1cc(N)n(-c2ccc(C)c(C)c2)n1 | inconclusive: 23.9 µM [inhibitor, partial curve] | – |
| CN(C)c1ccc(N=Cc2nc(-c3ccccc3)oc2O)cc1 | inconclusive: 9.53 µM [inhibitor, partial curve] | – |

| Compound | Potency | activity change, negative = inhibition |
| --- | --- | --- |
| CC1CCc2sc(C(=O)NC(C)C3CCCO3)cc2C1 (stereo not drawn) | active: 10.7 µM | – |
| COCCN(Cc1cc2cc(C)cc(C)c2nc1Cl)C(=O)Nc1ccccc1 | inconclusive: 23.9 µM [inhibitor, single point] | – |
| O=C(Nc1ccc(Cl)cn1)c1ccccc1F | active: 4.26 µM | – |
| COc1cccc2sc(NN)nc12 | inconclusive: 26.9 µM [inhibitor, single point] | – |
| COC(=O)c1ccccc1NC(=O)COC(=O)c1ccccc1N=Nc1ccc(N(C)C)cc1 | active: 12 µM | – |
| O=C(Nc1ccc2[nH]ncc2c1)c1cccc(F)c1 | inconclusive: 13.5 µM [inhibitor, partial curve] | – |
| COc1cc(Cl)ccc1OCc1cc(C(=O)N[C@H]2CCCCNC2=O)no1 | active: 3.38 µM | – |
| CC1CCCCN1C(=O)CSc1nnc(-c2ccc(Cl)s2)o1 (stereo not drawn) | inconclusive: 21.3 µM [inhibitor, single point] | – |
| COc1ccc(C2CC(c3ccc4ccccc4c3)=NN2C(=O)CSc2ncccn2)cc1 (stereo not drawn) | inconclusive: 23.9 µM [inhibitor, partial curve, poor fit] | – |
| COc1ccc(/C=C2\SC(=S)N(CC(=O)OCC(=O)Nc3cc(Cl)cc(Cl)c3)C2=O)cc1 | inconclusive: 26.9 µM [inhibitor, single point] | – |
| O=C(Cc1cccs1)Nc1ccc(Cl)cc1 | inconclusive: 16.9 µM [inhibitor, partial curve] | – |
| Cc1cccn2cc(CNc3ccccc3)nc12 | inconclusive: 19 µM [inhibitor, partial curve] | – |
| COc1ccccc1NC(=O)c1cc(S(=O)(=O)N2CCOCC2)ccc1Cl | – | inactive: -0.0171% |
| Cc1c(C(=O)Nc2ccccc2)sc2nc[nH]c(=O)c12 | inconclusive: 23.9 µM [inhibitor, partial curve, poor fit] | – |
| CCN(C(=O)COC(=O)CNC(=O)c1ccc2ccccc2c1)C1CCS(=O)(=O)C1 (stereo not drawn) | inconclusive: 37.9 µM [inhibitor, single point] | – |
| CCc1ccc(OCC(=O)NNC(=O)CNC(=O)c2ccc(Br)o2)cc1 | inconclusive: 9.53 µM [inhibitor, partial curve, poor fit] | – |
| CC(C)(C)OC(=O)NCc1ccc(CNC(=O)c2[nH]cnc2C(=O)NCC(=O)OCc2ccccc2)cc1 | – | inactive: 6.96% |
| Cc1ccc2c(c1)COc1c3ccc(C(=O)O)cc3nn1-2 | active: 1.35 µM | – |
| CCOCc1c(C(=O)NC2=Nc3ccccc3NC(CC)=C2C(=O)OCC)oc2ccccc12 | – | inactive: -7.22% |
| CCOc1ccc(S(=O)(=O)n2ccnc2)c2ccccc12 | inconclusive: 37.9 µM [inhibitor, single point] | – |
| CCCCn1c(SCc2nc3ccccc3s2)nc2cc(S(N)(=O)=O)ccc21 | inconclusive: 23.9 µM [inhibitor, single point] | – |
| Cn1c(SCC(=O)c2ccc(F)cc2)nnc1-c1ccccn1 | inconclusive: 16.9 µM [inhibitor, partial curve] | – |
| O=c1c2cc(F)ccc2sn1-c1ccccc1 | inconclusive: 20 µM [inhibitor, partial curve, poor fit] | – |
| COc1cccc(Nc2ncnc3sc(C)cc23)c1 | active: 16.9 µM | – |
| C/C(=N\NC(=O)c1ccc2c(c1)OCO2)c1cccnc1 | inconclusive: 6.75 µM [inhibitor, single point] | – |

| Compound | Potency | activity change, negative = inhibition |
| --- | --- | --- |
| Cc1ccc(-c2cnn3c(N4CCOCC4)cc(C)nc23)cc1 | active: 0.478 µM | – |
| O=C(Nc1cnc2ccccn2c1=O)c1ccc(Cl)cc1 | active: 15.1 µM | – |
| O=C(c1cnn(-c2ccccc2)c1)c1cc(F)ccc1O | active: 13.5 µM | – |
| Cc1cccc(-n2ncc3c(NCCCN4CCCC4=O)ncnc32)c1 | inconclusive: 23.9 µM [inhibitor, partial curve] | – |
| O=C(NCCCO)/C(=C\c1cn(-c2ccccc2)nc1-c1cccnc1)NC(=O)c1ccccc1 | – | inactive: 2.11% |
| CC(C)CCNC(=O)c1ccc2nc[nH]c2c1 | inconclusive: 37.9 µM [inhibitor, partial curve, poor fit] | – |
| CCOC(=O)c1ccc(Nc2nnc(C(C)(C)C)c(=O)[nH]2)cc1 | inconclusive: 19 µM [inhibitor, partial curve] | – |
| COc1ccc(/C=C2\CCCC(C(=O)C(F)(F)F)=C2O)cc1 | inconclusive: 26.9 µM [inhibitor, partial curve] | – |
| Cn1c(NC(=O)c2cccnc2)nc2ccccc21 | inconclusive: 19 µM [inhibitor, partial curve] | – |
| CCOC(=O)c1ccc(NC(=S)NCc2ccccc2)cc1 | inconclusive: 37.9 µM [inhibitor, partial curve, poor fit] | – |
| CN(C(=O)CN1C(=O)/C(=C/c2ccc(F)cc2)SC1=S)C1CCS(=O)(=O)C1 (stereo not drawn) | inconclusive: 23.9 µM [inhibitor, partial curve, poor fit] | – |
| Cc1nnc(SC(C(=O)Nc2ccc(Cl)c([N+](=O)[O-])c2)c2ccccc2)[nH]c1=O (stereo not drawn) | inconclusive: 21.3 µM [inhibitor, single point] | – |
| O=C(/C=C/Nc1cccc(F)c1)c1ccco1 | active: 2.13 µM | – |
| O=C(CNc1ccc(Br)cc1)c1ccc(O)cc1 | inconclusive: 26.9 µM [inhibitor, partial curve] | – |
| Cc1nc2nc(-c3ccccc3)[nH]n2c(=O)c1C | inconclusive: 16.9 µM [inhibitor, partial curve] | – |
| Cc1ccc(NC2=C(CC(=O)O)C(c3ccccc3)N(c3ccc(C)cc3)C2=O)cc1 (stereo not drawn) | inconclusive: 37.9 µM [inhibitor, partial curve, poor fit] | – |
| CCc1c(C)nc(SCc2nc(-c3ccccc3C)no2)[nH]c1=O | inconclusive: 12 µM [inhibitor, partial curve] | – |
| CCOC(=O)C1CCN(C(=O)/C=C/c2ccc3c(c2)OCO3)CC1 | active: 15.1 µM | – |
| O=C(COc1ccc(F)cc1)Nc1ccc(S(=O)(=O)N(Cc2ccccc2)c2ccccc2)cc1 | – | inactive: 6.28% |
| O=C1/C(=C/c2ccc(O)c(O)c2)Oc2cc(O)ccc21 | active: 15.1 µM | – |
| CCC1C(=O)N=C(SCC(=O)Nc2nc3ccccc3s2)NC1=O (stereo not drawn) | inconclusive: 23.9 µM [inhibitor, partial curve, poor fit] | – |
| CCc1ccc(NC(=O)c2ccc(NS(=O)(=O)c3c(C)noc3C)cc2)cc1 | inconclusive: 15.1 µM [inhibitor, partial curve, poor fit] | – |
| CCc1cccc(C)c1NC(=O)c1cc(S(=O)(=O)N2CCCCCC2)cn1C | – | inactive: 6.09% |
